{
  "source": "the supplement of paper PMC12217912",
  "parents": {"B1": {"name": "TEV protease; numbered along this chain (parent)", "chain": "MGESLFKGPRDYNPISSSICHLTNESDGHTTSLYGIGFGPFIITNKHLFRRNNGTLVVQSLHGVFKVKDTTTLQQHLVDGRDMIIIRMPKDFPPFPQKLKFREPQREERICLVTTNFQTKSMSSMVSDTSCTFPSGDGIFWKHWIQTKDGQCGSPLVSTRDGFIVGIHSASNFTNTNNYFTSVPKNFMELLTNQEAQQWVSGWRLNADSVLWGGHKVFMVKPEEPFQPVKEATQL"}},
  "note": "This is one part of the list. Sequences were assembled here from the parent chain. Inactive controls read about 0.05.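 Further: Bxb1 expression induced with 0.2% (w/v) L-rhamnose at OD600 near 0.5, cultures sampled hourly, flipped fraction per protease–substrate barcode pair counted by paired-end Illumina sequencing.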",
  "data": [
    {"variants_of": "B1", "assay": "raw area under fraction-flipped curve 0-4 h after induction (AUC4h, not background-subtracted), DNA-recorder readout of cleavage of the substrate (dimensionless); higher = more cleavage of the substrate by the protease variant", "settings": "temperature: 34 °C; time window: 0-4 h after rhamnose induction", "procedure": "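In vivo DNA recorder in E. coli TOP10(DE3) ΔrhaA at 34 °C. Each TEVp single-site mutant (parent TEVp 0) is paired with a single-site variant of the 7-mer TEVs (canonical ENLYFQ|S). The substrate sits between flexible linkers in a Bxb1-sfGFP-TEVs-SsrA fusion, so cleavage stabilises Bxb1 and speeds flipping of a recombination array, read by NGS. The value is the raw area under the fraction-flipped curve over 0-4 h after rhamnose induction (AUC4h), with ≥20 reads per time point. It is not background-subtracted; inactive controls average about 0.047.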", "values": [
      {"variant": "MGESLFKGPRDYNPISSSICHLTNESDGHTTSLYGIGFGPFIITNKHLFRRNNGTLVVQSLHGVFKVKDTTTLQQHLVDGRDMIIIRMPKDFPPFPQKLKFREPQREERRCLVTTNFQTKSMSSMVSDTSCTFPSGDGIFWKHWIQTKDGQCGSPLVSTRDGFIVGIHSASNFTNTNNYFTSVPKNFMELLTNQEAQQWVSGWRLNADSVLWGGHKVFMVKPEEPFQPVKEATQL", "note": "[I110R]", "area with substrate ENLYAQS": 0.0547, "area with substrate ENLYDQS": 0.0554, "area with substrate ENLYGQS": 0.0559, "area with substrate ENLYKQS": 0.0573, "area with substrate ENLYSQS": 0.0666, "area with substrate ENLYWQS": 0.0807},
      {"variant": "MGESLFKGPRDYNPISSSICHLTNESDGHTTSLYGIGFGPFIITNKHLFRRNNGTLVVQSLHGVFKVKDTTTLQQHLVDGRDMIIIRMPKDFPPFPQKLDFREPQREERICLVTTNFQTKSMSSMVSDTSCTFPSGDGIFWKHWIQTKDGQCGSPLVSTRDGFIVGIHSASNFTNTNNYFTSVPKNFMELLTNQEAQQWVSGWRLNADSVLWGGHKVFMVKPEEPFQPVKEATQL", "note": "[K100D]", "area with substrate ENLYAQS": 0.0649, "area with substrate ENLYEQS": 0.0688, "area with substrate ENLYHQS": 0.0754, "area with substrate ENLYKQS": 0.0707, "area with substrate ENLYLQS": 0.0761, "area with substrate ENLYMQS": 0.126, "area with substrate ENLYNQS": 0.0545, "area with substrate ENLYRQS": 0.0583, "area with substrate ENLYSQS": 0.0773, "area with substrate ENLYVQS": 0.132, "area with substrate ENLYWQS": 0.0696, "area with substrate ENLYYQS": 0.0753},
      {"variant": "MGESLFKGPRDYNPISSSICHLTNESDGHTTSLYGIGFGPFIITNKHLFRRNNGTLVVQSLHGVFKVKDTTTLQQHLVDGRDMIIIRMPKDFPPFPQKLKFREPQREERICLVTTNFQTKSMSSWVSDTSCTFPSGDGIFWKHWIQTKDGQCGSPLVSTRDGFIVGIHSASNFTNTNNYFTSVPKNFMELLTNQEAQQWVSGWRLNADSVLWGGHKVFMVKPEEPFQPVKEATQL", "note": "[M125W]", "area with substrate ENLYAQS": 0.0528, "area with substrate ENLYDQS": 0.0653, "area with substrate ENLYEQS": 0.048, "area with substrate ENLYGQS": 0.0566, "area with substrate ENLYHQS": 0.046, "area with substrate ENLYKQS": 0.0826, "area with substrate ENLYLQS": 0.0746, "area with substrate ENLYNQS": 0.0676, "area with substrate ENLYPQS": 0.0739},
      {"variant": "MGESLFKGPRDYNPISSSICHLTNESDGHTTSLYGIGFGPFIITNKHLFRRNNGTLVVQSLHGVFKVKDTTTLQQHLVDGRDMIIIRMPKDFPPFPQKLKFREPQREERICLVTTNFQQKSMSSMVSDTSCTFPSGDGIFWKHWIQTKDGQCGSPLVSTRDGFIVGIHSASNFTNTNNYFTSVPKNFMELLTNQEAQQWVSGWRLNADSVLWGGHKVFMVKPEEPFQPVKEATQL", "note": "[T119Q]", "area with substrate ENLYAQS": 0.0833},
      {"variant": "MGESLFKGPRDYNPISSSICHLTNESDGHTTSLYGIGFGPFIITNKHLFRRNNGTLVVQSLHGVFKVKDTTTLQQHLVDGRDMIIITMPKDFPPFPQKLKFREPQREERICLVTTNFQTKSMSSMVSDTSCTFPSGDGIFWKHWIQTKDGQCGSPLVSTRDGFIVGIHSASNFTNTNNYFTSVPKNFMELLTNQEAQQWVSGWRLNADSVLWGGHKVFMVKPEEPFQPVKEATQL", "note": "[R87T]", "area with substrate ENLYAQS": 0.0507, "area with substrate ENLYEQS": 0.0412, "area with substrate ENLYGQS": 0.0643, "area with substrate ENLYIQS": 0.0656, "area with substrate ENLYKQS": 0.0647, "area with substrate ENLYNQS": 0.066, "area with substrate ENLYPQS": 0.0705, "area with substrate ENLYQQS": 0.0589, "area with substrate ENLYRQS": 0.0519, "area with substrate ENLYSQS": 0.0741, "area with substrate ENLYTQS": 0.0648, "area with substrate ENLYWQS": 0.0609},
      {"variant": "MGESLFKGPRDYNPISSSICHLTNESDGHTTSLYGIGFGPFIITNKHLFRRNNGTLVVQSLHGVFKVKDTTTLQQHLVDGRDMIIIRMPKDFPPFPQKLKFREPQREERICLVTTNFWTKSMSSMVSDTSCTFPSGDGIFWKHWIQTKDGQCGSPLVSTRDGFIVGIHSASNFTNTNNYFTSVPKNFMELLTNQEAQQWVSGWRLNADSVLWGGHKVFMVKPEEPFQPVKEATQL", "note": "[Q118W]", "area with substrate ENLYAQS": 0.0764, "area with substrate ENLYCQS": 0.0785, "area with substrate ENLYDQS": 0.072, "area with substrate ENLYEQS": 0.0622, "area with substrate ENLYGQS": 0.0673, "area with substrate ENLYHQS": 0.0784, "area with substrate ENLYRQS": 0.0583, "area with substrate ENLYVQS": 0.117, "area with substrate ENLYWQS": 0.0679},
      {"variant": "MGESLFKGPRDYNPISSSICHLTNESDGHTTSLYGIGFGPFIITNKHLFRRNNGTLVVQSLHGVFKVKDTTTLQQHLVDGRDMIIIRMPKDFPPFPQRLKFREPQREERICLVTTNFQTKSMSSMVSDTSCTFPSGDGIFWKHWIQTKDGQCGSPLVSTRDGFIVGIHSASNFTNTNNYFTSVPKNFMELLTNQEAQQWVSGWRLNADSVLWGGHKVFMVKPEEPFQPVKEATQL", "note": "[K98R]", "area with substrate ENLYAQS": 0.0753, "area with substrate ENLYDQS": 0.0551, "area with substrate ENLYGQS": 0.0761, "area with substrate ENLYHQS": 0.0649, "area with substrate ENLYIQS": 0.129, "area with substrate ENLYKQS": 0.0677, "area with substrate ENLYLQS": 0.0824, "area with substrate ENLYNQS": 0.0718, "area with substrate ENLYPQS": 0.0757, "area with substrate ENLYQQS": 0.0609, "area with substrate ENLYTQS": 0.0996, "area with substrate ENLYVQS": 0.121, "area with substrate ENLYWQS": 0.0727, "area with substrate ENLYYQS": 0.0637},
      {"variant": "MGESLFKGPRDYNPISSSICHLTNESDGHTTSLYGIGFGPFIITNKHLFRRNNGTLVVQSLHGVFKVKDTTTLQQHLVDGRDMIIIRMPKDFPPFPQKLKFREPQREERICLVLTNFQTKSMSSMVSDTSCTFPSGDGIFWKHWIQTKDGQCGSPLVSTRDGFIVGIHSASNFTNTNNYFTSVPKNFMELLTNQEAQQWVSGWRLNADSVLWGGHKVFMVKPEEPFQPVKEATQL", "note": "[T114L]", "area with substrate ENLYAQS": 0.0739, "area with substrate ENLYHQS": 0.07, "area with substrate ENLYIQS": 0.142, "area with substrate ENLYKQS": 0.0287, "area with substrate ENLYMQS": 0.0829, "area with substrate ENLYRQS": 0.0643, "area with substrate ENLYTQS": 0.0836, "area with substrate ENLYVQS": 0.136, "area with substrate ENLYWQS": 0.0856},
      {"variant": "MGESLFKGPRDYNPISSSICHLTNESDGHTTSLYGIGFGPFIITNKHLFRRNNGTLVVQSLHGVFKVKDTTTLQQHLVDGRDMIIIRMPKDFPPFPQKNKFREPQREERICLVTTNFQTKSMSSMVSDTSCTFPSGDGIFWKHWIQTKDGQCGSPLVSTRDGFIVGIHSASNFTNTNNYFTSVPKNFMELLTNQEAQQWVSGWRLNADSVLWGGHKVFMVKPEEPFQPVKEATQL", "note": "[L99N]", "area with substrate ENLYAQS": 0.0761, "area with substrate ENLYCQS": 0.0798, "area with substrate ENLYDQS": 0.0601, "area with substrate ENLYIQS": 0.122, "area with substrate ENLYLQS": 0.0722, "area with substrate ENLYMQS": 0.0954, "area with substrate ENLYNQS": 0.0475, "area with substrate ENLYTQS": 0.079, "area with substrate ENLYWQS": 0.0723},
      {"variant": "MGESLFKGPRDYNPISSSICHLTNESDGHTTSLYGIGFGPFIITNKHLFRRNNGTLVVQSLHGVFKVKDTTTLQQHLVDGRDMIIIRMPKDFPPFPQKKKFREPQREERICLVTTNFQTKSMSSMVSDTSCTFPSGDGIFWKHWIQTKDGQCGSPLVSTRDGFIVGIHSASNFTNTNNYFTSVPKNFMELLTNQEAQQWVSGWRLNADSVLWGGHKVFMVKPEEPFQPVKEATQL", "note": "[L99K]", "area with substrate ENLYAQS": 0.0513, "area with substrate ENLYHQS": 0.0545, "area with substrate ENLYKQS": 0.0622, "area with substrate ENLYPQS": 0.0553, "area with substrate ENLYSQS": 0.0447, "area with substrate ENLYVQS": 0.115, "area with substrate ENLYWQS": 0.0529}
    ]}
  ]
}
